Data taken from PMC4336329 (PLoS ONE, 2015).
About 2,200 (0.71%) of roughly 310,000 compounds showed an effect of 50% or more. The effect is printed as a negative number. This is one part of the list.

Molecular target: human ether-à-go-go-related gene (hERG) potassium channel (human, UniProt Q12809)
Experiment: primary screen, population patch clamp on CHO cells stably expressing hERG

Sequence of human ether-à-go-go-related gene (hERG) potassium channel (Q12809 whole entry, looked up): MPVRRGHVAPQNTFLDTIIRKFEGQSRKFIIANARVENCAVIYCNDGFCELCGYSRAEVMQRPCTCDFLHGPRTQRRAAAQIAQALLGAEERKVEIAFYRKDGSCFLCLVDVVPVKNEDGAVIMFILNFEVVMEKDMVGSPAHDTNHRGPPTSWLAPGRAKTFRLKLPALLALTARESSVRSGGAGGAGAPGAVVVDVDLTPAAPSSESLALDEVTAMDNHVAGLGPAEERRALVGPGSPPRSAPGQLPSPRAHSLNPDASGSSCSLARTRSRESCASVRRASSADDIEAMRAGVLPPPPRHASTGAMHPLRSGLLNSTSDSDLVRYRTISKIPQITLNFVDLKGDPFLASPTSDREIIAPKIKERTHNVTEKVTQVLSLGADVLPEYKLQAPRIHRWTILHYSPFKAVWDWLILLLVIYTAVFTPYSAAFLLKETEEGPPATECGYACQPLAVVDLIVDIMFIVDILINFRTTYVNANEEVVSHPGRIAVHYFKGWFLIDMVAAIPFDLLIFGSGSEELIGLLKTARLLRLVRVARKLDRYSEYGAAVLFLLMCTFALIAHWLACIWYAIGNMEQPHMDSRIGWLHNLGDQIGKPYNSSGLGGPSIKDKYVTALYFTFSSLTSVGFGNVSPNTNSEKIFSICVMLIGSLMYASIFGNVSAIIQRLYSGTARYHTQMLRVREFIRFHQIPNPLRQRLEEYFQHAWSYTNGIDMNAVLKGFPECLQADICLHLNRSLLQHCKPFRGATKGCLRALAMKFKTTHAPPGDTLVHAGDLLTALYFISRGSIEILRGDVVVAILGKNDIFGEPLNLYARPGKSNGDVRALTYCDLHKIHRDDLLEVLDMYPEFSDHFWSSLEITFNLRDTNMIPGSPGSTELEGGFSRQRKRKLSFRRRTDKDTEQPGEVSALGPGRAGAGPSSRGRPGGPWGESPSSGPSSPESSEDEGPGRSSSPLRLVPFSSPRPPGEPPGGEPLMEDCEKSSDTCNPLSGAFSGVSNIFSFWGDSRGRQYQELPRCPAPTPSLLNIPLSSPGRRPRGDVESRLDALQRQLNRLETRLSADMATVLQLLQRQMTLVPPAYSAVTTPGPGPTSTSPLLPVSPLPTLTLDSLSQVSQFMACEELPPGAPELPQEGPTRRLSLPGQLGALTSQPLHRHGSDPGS

Row | SMILES | hERG current change (%, negative = inhibition) at 1uM
1 | COC(=O)c1sccc1NC(=S)Nc1ccc(C)cc1 | 11%
2 | Cc1ccccc1Cc1ccc(Cl)nn1 | 6.13%
3 | Cc1cc(-c2ccccc2)nc2[nH]n(-c3ccccc3)c(=O)c12 | -0.4%
4 | CC(=O)Nc1cccc(NC(=O)c2cccc3cccnc23)c1 | 15.9%
5 | CCCCN(C(=O)COc1ccc(C)cc1OC)c1c(N)n(CCC)c(=O)[nH]c1=O | 2.14%
6 | O=C(NCCN1C(=O)S/C(=C\c2cccnc2)C1=O)c1ccc([N+](=O)[O-])s1 | 11.3%
7 | COc1cccc(CCNC(=O)C2CCCN(c3ncnc4c3nc3n4CCCCC3)C2)c1OC (stereo not drawn) | -31.5%
8 | NC(=O)COC(=O)c1cc(Cl)cc(Cl)c1N | 11.6%
9 | COc1ccc(-c2cn3cccnc3n2)cc1 | 14.8%
10 | O=C(Nc1ccccn1)c1cc(-c2ccc(Cl)s2)nc2ccccc12 | 10.8%
11 | Cc1onc(C(=O)NN)c1C(=O)Nc1ncc(C(F)(F)F)cc1Cl | 15.1%
12 | CCCCc1nc2cc(C(=O)N3CCCCC3CCNC(C)=O)ccc2o1 (stereo not drawn) | 23.1%
13 | Cn1c(CN2CCCCC2)nc2cc(NS(=O)(=O)c3ccc(F)cc3)ccc21 | -21.8%
14 | CC(=O)c1ccc(N2CCN(c3ccc(C(F)(F)F)cn3)CC2)cc1 | 4.25%
15 | CCNC(=S)NNC(=O)CCc1nc2cc(Cl)ccc2n(Cc2ccccc2)c1=O | 6.29%
16 | CC12COC3(C(=O)Nc4ccc(Cl)cc4)CC1CCC32C (stereo not drawn) | 9.96%
17 | CC(C)(C)c1nc(SCC(=O)c2ccccc2)c2ccccc2n1 | 13.5%
18 | CC1CCCCN1CCCNC(=O)c1ccc(NC(=O)C2=CSCCO2)cc1 (stereo not drawn) | 16.1%
19 | Cc1cc(=O)n(C)c2ccc(S(=O)(=O)N3CCOCC3)cc12 | 20.4%
20 | O=C(O)CCCNC(=O)C(c1ccccc1)c1ccccc1 | 6%
21 | CC[n+]1ccc2cc(OC)c(OC)cc2c1Cc1ccc(OC)c(OC)c1.[I-] | 24.5%
22 | O=C(COC(=O)c1ccc(O)cc1)NC1CCCC1 | 15.1%
23 | COc1ccc(-n2c(CCC(=O)O)ccc2-c2ccccc2)cc1 | 3.65%

Row | SMILES | hERG current change (%, negative = inhibition) at 1uM
24 | Cc1ccc(C(=O)C(C)OC(=O)Cc2c[nH]c3ccccc23)cc1 (stereo not drawn) | 7.75%
25 | CCN(CC(=O)Nc1c(F)cccc1F)C(=O)c1ccc(S(=O)(=O)N2CCCC2)cc1 | 4.21%
26 | Cc1ccc(NC(=O)c2ccc(Cn3cc([N+](=O)[O-])cn3)cc2)c(C)c1 | 7.82%
27 | COc1cc(S(=O)(=O)N2CCOCC2)ccc1NC(=O)COC(=O)COc1ccccc1 | 5.16%
28 | Cc1ccccc1Cn1ccc(NC(=O)c2cnn3cccnc23)n1 | 4.41%
29 | COc1ccc(/C=N/NC(=O)CN(C)S(=O)(=O)c2ccc(NC(C)=O)cc2)cc1 | 2.96%
30 | O=C(Cn1ncc(Cl)c(Cl)c1=O)NC1CCS(=O)(=O)C1 (stereo not drawn) | 0.998%
31 | COc1ccc(CCNC(=O)CC(=O)N/N=C/c2ccc(Br)cc2)cc1OC | 7.64%
32 | CN(C)S(=O)(=O)c1cccc(C(=O)Nc2cc(Cl)ccc2O)c1 | 0.679%
33 | CCOc1ccc(-c2nnn(CC(=O)N3CCCC(C)C3)n2)cc1 (stereo not drawn) | 2.01%
34 | O=C(CSc1ccc2nnc(-c3cccnc3)n2n1)c1ccccc1 | -13.6%
35 | O=C(COc1ccc2ccccc2c1)N1CCNCC1.O=C(O)C(F)(F)F | 5.67%
36 | Br.CCCCn1c(=N)n(CCOc2ccc(C)cc2)c2ccccc21 | -59.6%
37 | C=C(C)CN=C1SC(C(=O)Nc2sc3c(c2C(=O)OC)CCC3)C(N)=C1C(N)=O (stereo not drawn) | 14.1%
38 | Cl.O=C1CCC(c2ccccc2)(C2CCN(Cc3ccccc3)CC2)C(=O)N1 (stereo not drawn) | 7.17%
39 | CN(C/C(O)=C(\C#N)c1ccccc1)C1CCCCC1 | 10.1%
40 | CNC(=O)c1ccccc1F | 11.5%
41 | CCn1c2ccccc2c2cc(NC(=O)COC(=O)c3cc(OC)c(OC)cc3OC)ccc21 | 9.06%
42 | O=C(O)C1CCCN1c1ncccn1 (stereo not drawn) | 1.01%
43 | Cc1ccc(NC(=O)/C(C#N)=C/c2ccc(Sc3nc(C)cc(C)n3)o2)cc1 | 11.7%
44 | CCC(=O)Nc1ccccc1C(=O)N1CCN(Cc2ccccc2)CC1 | 8.56%
45 | CCCCC(=O)NC(c1ccccc1Cl)c1c(O)ccc2ccccc12 (stereo not drawn) | -0.695%
46 | COc1ccc(NC(=O)/C(N=Nc2cc(S(=O)(=O)Nc3ccc(OC)cc3)ccc2OC)=C(\C)O)cc1 | 15.4%

Row | SMILES | hERG current change (%, negative = inhibition) at 1uM
47 | COc1ccc(NC(=O)c2cc(-c3ccccc3Cl)no2)cc1 | 6.92%
48 | C=C(C)CC1N(c2cccc(OC)c2)C(=O)C2C(C(=O)O)C3C=CC21O3 (stereo not drawn) | 8.54%
49 | Cc1ccc(C(=O)Nc2ccc(S(=O)(=O)N3CCCC3)cc2)cc1 | 12.5%
50 | COC(=O)c1ccc(NS(=O)(=O)c2cc3c4c(c2)CCC(=O)N4CCC3)cc1 | 4.92%
51 | CC(C)(C)c1nn2cnnc2n(/N=C/c2cccc3ccccc23)c1=O | 10%
52 | CC(C)CN(C(=O)COC(=O)c1ccc(Cl)nc1)c1c(N)n(Cc2ccccc2)c(=O)[nH]c1=O | 13.2%
53 | COc1ccc(C(=O)N2CCC(C(=O)Nc3ccccc3OC)CC2)cc1 | 13.4%
54 | Oc1[nH]c2ccccc2c1N=Nc1c(F)c(F)c(C(F)(F)F)c(F)c1F | 5.76%
55 | Cc1ccc(-c2nnc(N3CCCCC3)c3ccccc23)cc1S(=O)(=O)N1CCN(C)CC1 | -16.9%
56 | O=C(COc1ccccc1/C=C1\SC(=O)NC1=O)Nc1ccccc1 | 21.8%
57 | CCOc1ccc(NS(=O)(=O)c2ccc(C)c(C(N)=O)c2)cc1 | 14.9%
58 | Cc1nnc2ccc(-c3cccc(C(F)(F)F)c3)nn12 | 5.93%
59 | O=C(NCCC1=CCCCC1)C1CCN(c2nnc(-n3cccc3)s2)CC1 | -6.21%
60 | CC1CCN(CC(O)COC2CC(C)CCC2C(C)C)CC1.Cl (stereo not drawn) | -13.9%
61 | COc1ccc(NC(=O)NS(=O)(=O)c2ccc(C)cc2)c(OC)c1 | 16%
62 | CCOc1ccc([N+](=O)[O-])cc1CNC1CCCCCCC1.Cl | 11.4%
63 | Brc1cc2c(cc1/C=N/Nc1nc3ccccc3s1)OCO2 | 8.4%
64 | CCc1nnc(SCC(=O)NC2CC2)n1CC | 18.8%
65 | Cn1nnnc1SCC(=O)Nc1ccc2c(c1)OCO2 | 13.2%
66 | Cc1cccc(C(=O)OCC(=O)Nc2nnc(-c3ccccc3)o2)c1O | 1.36%
67 | COC(=O)c1ccccc1NC(=O)CSc1nnc(C(C)NC(=O)c2ccc(Cl)cc2Cl)n1C (stereo not drawn) | -3.64%
68 | Nc1nnc(SCC(=O)OCC(=O)NC23CC4CC(CC(C4)C2)C3)s1 | 15.5%
69 | CC(=O)Nc1ccc2c(c1)OCCOCCOc1cc(NC(C)=O)ccc1OCCO2 | 9.07%

Row | SMILES | hERG current change (%, negative = inhibition) at 1uM
70 | COc1cc(CNCCCO)ccc1OCC(=O)NC(C)(C)C | 15.6%
71 | COc1ccccc1CNc1ccccc1F | 10.3%
72 | O=C(Nc1cccc(O)c1)c1ccc(Br)c(S(=O)(=O)N2CCCCC2)c1 | 7.4%
73 | Cc1nonc1NC(=O)c1oc2ccc(F)cc2c1C | 21.4%
74 | COc1ccc(N2C(S)=C(C#N)C(=O)NC23CCCCC3)cc1 | 21.1%
75 | O=C(Cc1ccc(Br)cc1)N/N=C/c1cccnc1 | 2.1%
76 | CN(C)CCN1CC(C(=O)O)CC1=O (stereo not drawn) | 10.4%
77 | Cc1nc(CS(=O)(=O)c2ccccc2)cc(N2CCN(c3ccccc3F)CC2)n1 | 9.36%
78 | CCc1c(C)sc(NC(=O)C2CC(c3c(F)cccc3Cl)=NO2)c1C#N (stereo not drawn) | 12.9%
79 | COc1ccc(C(=O)Nc2c(-c3ccccc3)nc3ccccn23)c(OC)c1 | 13.4%
80 | Cc1occc1-c1nnc(SCC(=O)N2CCOCC2)n1CC(C)C | 7.82%
81 | O=C(Nc1cccc(Cl)c1Cl)Nn1cnnc1 | 16.1%
82 | COc1ccc(CN2CCNC(=O)C2CC(=O)N2CCCN(C(C)=O)CC2)c(OC)c1 (stereo not drawn) | 16%
83 | CCN(CC)Cc1ccccn1.Cl | 9.21%
84 | COC(=O)Cc1nc(NC(=O)c2cccs2)sc1C | 23.2%
85 | CCOC(=O)c1cnn(CCOC(=O)c2ccc(F)cc2)c1NC(=O)c1ccc(F)cc1 | 2.82%
86 | Cc1cc(=O)n(C)c(=O)n1CC(=O)N1CCCCCC1 | 16.5%
87 | CCCn1c(CN(Cc2ccccc2)Cc2ccccc2)nc2c1c(=O)n(C)c(=O)n2C | 12.8%
88 | CCOc1cc(/C=C2\SC(N3CCCC(C)C3)=NC2=O)ccc1O (stereo not drawn) | 12.6%
89 | COC(=O)C1=C(c2ccc(OC)c(OC)c2)C[C@@H]2CC[C@H]1N2C(=O)N1CCC(O)CC1 | 12.7%
90 | O=c1cnn(-c2ccc(Cl)cc2Cl)c(-c2ccccc2)c1 | 5.48%
